{
  "source": "PubChem BioAssay AID234",
  "about": "(DTP/NCI, 2004)",
  "system": "C3AKF1 mice, hamster liver cystadenocarcinoma s.c., tumor weight T/C",
  "assay": "NCI In Vivo Anticancer Drug Screen. Data for tumor model Cystadenocarcinoma, Liver (No. 1) (Hamster) (subcutaneous) in C3AKF1 (CHKRF1) mice",
  "settings": "endpoint: mean tumor weight, schedule: Q01DX010 (ip), higher = larger tumour",
  "procedure": "The antitumor activity of compounds was measured in mice bearing transplantable tumors. Survival or tumor size were measured and the results are expressed as the measurement made in the treated group (T) divided by the measurement made in the vehicle treated control group (C). The tumor model used in this assay is Cystadenocarcinoma, Liver (No. 1) (Hamster) (subcutaneous) in C3AKF1 (CHKRF1) mice",
  "key": {"[1]": {"settings": "dose: 200.0 mg/kg/injection, vehicle: carboxymethylcellulose (CMC)"}, "[2]": {"settings": "dose: 30.0 mg/kg/injection, vehicle: carboxymethylcellulose (CMC)"}},
  "note": "Records with an inconclusive call do not appear. Not every entry of the source has a single result; some have several. The other results are left out here. The source may hold further records. The values listed for one entry are repeats across runs, samples, wells, individuals or studies.",
  "data": [
    {"smiles": "Clc1ncnc2c1ncn2C1CCCO1", "note": "(stereo unspecified)", "values": [
      {"measurement": "T/C", "setting": "[1]", "value": "60 % of control and 104 % of control"}
    ]},
    {"smiles": "Fc1ccc(CSc2ncnc3c2ncn3C2CCCCO2)cc1", "note": "(stereo unspecified)", "values": [
      {"measurement": "T/C", "setting": "dose: 180.0 mg/kg/injection, vehicle: carboxymethylcellulose (CMC)", "value": "61 % of control and 105 % of control"}
    ]},
    {"smiles": "ClCCn1cnc2c(SCc3ccccc3Cl)ncnc21", "values": [
      {"measurement": "T/C", "setting": "[1]", "value": "80 % of control and 114 % of control"}
    ]},
    {"smiles": "O=[N+]([O-])c1ccccc1CSc1ncnc2nc[nH]c12", "values": [
      {"measurement": "T/C", "setting": "dose: 62.0 mg/kg/injection, vehicle: carboxymethylcellulose (CMC)", "value": "64 % of control and 93 % of control"},
      {"measurement": "T/C", "setting": "dose: 125.0 mg/kg/injection, vehicle: carboxymethylcellulose (CMC)", "value": "33 % of control and 94 % of control"}
    ]},
    {"smiles": "C/C=C1\\CN(C)[C@H]2Cc3c([nH]c4ccccc34)[C@@H](c3cc4[nH]c5c(c4cc3OC)CCN3C[C@H]4C[C@H](CC)[C@H]3[C@@]5(C(=O)OC)C4)C[C@H]1C2C(=O)OC", "note": "(stereo partly specified)", "values": [
      {"measurement": "T/C", "setting": "dose: 13.0 mg/kg/injection, vehicle: water", "value": "67 % of control and 100 % of control"},
      {"measurement": "T/C", "setting": "dose: 20.0 mg/kg/injection, vehicle: water", "value": "53 % of control and 95 % of control"}
    ]},
    {"smiles": "CCCC(=O)NC1=C(N2CC2)C(=O)C(NC(=O)CCC)=C(N2CC2)C1=O", "values": [
      {"measurement": "T/C", "setting": "dose: 1.1 mg/kg/injection, vehicle: saline", "value": "36 % of control and 67 % of control"}
    ]},
    {"smiles": "CCn1cnc2c(=S)nc(N)[nH]c21", "values": [
      {"measurement": "T/C", "setting": "[2]", "value": "37 % of control and 89 % of control"}
    ]},
    {"smiles": "Nc1ncnc2c1ncn2C1CCCO1", "note": "(stereo unspecified)", "values": [
      {"measurement": "T/C", "setting": "dose: 100.0 mg/kg/injection, vehicle: carboxymethylcellulose (CMC)", "value": "62 % of control and 94 % of control"}
    ]},
    {"smiles": "Cn1cnc([N+](=O)[O-])c1Sc1nc(N)nc2c1ncn2C1OC(CO)C(O)C1O", "note": "(stereo unspecified)", "values": [
      {"measurement": "T/C", "setting": "dose: 7.0 mg/kg/injection, vehicle: carboxymethylcellulose (CMC)", "value": "74 % of control and 113 % of control"}
    ]},
    {"smiles": "CCCn1cnc2c(SCc3ccccc3Cl)nc(N)nc21", "values": [
      {"measurement": "T/C", "setting": "[1]", "value": "39 % of control and 112 % of control"}
    ]},
    {"smiles": "CN(N=O)C(N)=O", "values": [
      {"measurement": "T/C", "setting": "dose: 15.0 mg/kg/injection, vehicle: carboxymethylcellulose (CMC)", "value": "59 % of control and 90 % of control"},
      {"measurement": "T/C", "setting": "[2]", "value": "65 % of control and 106 % of control"}
    ]},
    {"smiles": "Nc1nc(SCc2ccccc2Cl)c2ncn(C3OC(CO)C(O)C3O)c2n1", "note": "(stereo unspecified)", "values": [
      {"measurement": "T/C", "setting": "dose: 50.0 mg/kg/injection, vehicle: carboxymethylcellulose (CMC)", "value": "79 % of control and 121 % of control"}
    ]},
    {"smiles": "CCCCSc1nc(N)nc2c1ncn2CC(C)CC", "note": "(stereo unspecified)", "values": [
      {"measurement": "T/C", "setting": "dose: 500.0 mg/kg/injection, vehicle: carboxymethylcellulose (CMC)", "value": "60 % of control and 92 % of control"}
    ]}
  ]
}
